Assay results as given in the supplement of paper PMC12217912.
This is one part of the list. The full chains were built here from the parent and the listed change. Inactive controls read about 0.05.

B1: TEV protease; numbered along this chain (parent)
chain: MGESLFKGPRDYNPISSSICHLTNESDGHTTSLYGIGFGPFIITNKHLFRRNNGTLVVQSLHGVFKVKDTTTLQQHLVDGRDMIIIRMPKDFPPFPQKLKFREPQREERICLVTTNFQTKSMSSMVSDTSCTFPSGDGIFWKHWIQTKDGQCGSPLVSTRDGFIVGIHSASNFTNTNNYFTSVPKNFMELLTNQEAQQWVSGWRLNADSVLWGGHKVFMVKPEEPFQPVKEATQL

Variants of: B1
Assay: raw area under fraction-flipped curve 0-4 h after induction (AUC4h, not background-subtracted), DNA-recorder readout of cleavage of the substrate (dimensionless); higher = more cleavage of the substrate by the protease variant
Conditions: temperature: 34 °C; time window: 0-4 h after rhamnose induction
Protocol: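 In vivo DNA recorder in E. coli TOP10(DE3) ΔrhaA at 34 °C. Each TEVp single-site mutant (parent TEVp 0) is paired with a single-site variant of the 7-mer TEVs (canonical ENLYFQ|S). The substrate sits between flexible linkers in a Bxb1-sfGFP-TEVs-SsrA fusion, so cleavage stabilises Bxb1 and speeds flipping of a recombination array, read by NGS. The value is the raw area under the fraction-flipped curve over 0-4 h after rhamnose induction (AUC4h), with ≥20 reads per time point. It is not background-subtracted; inactive controls average about 0.047.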
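Further: Bxb1 expression induced with 0.2% (w/v) L-rhamnose at OD600 near 0.5, cultures sampled hourly, flipped fraction per protease–substrate barcode pair counted by paired-end Illumina sequencing.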

| Variant | area with substrate ENLYFQA | area with substrate ENLYFQP | area with substrate ENLYFQS | area with substrate ENLYFQT | area with substrate ENLYFQV | area with substrate ENLYFQD | area with substrate ENLYFQH | area with substrate ENLYFQI | area with substrate ENLYFQK | area with substrate ENLYFQL | area with substrate ENLYFQM | area with substrate ENLYFQR | area with substrate ENLYFQW | area with substrate ENLYFQY | area with substrate ENLYFQC | area with substrate ENLYFQN | area with substrate ENLYFQF | area with substrate ENLYFQG | area with substrate ENLYFQQ | area with substrate ENLYFQE |
| --- | --- | --- | --- | --- | --- | --- | --- | --- | --- | --- | --- | --- | --- | --- | --- | --- | --- | --- | --- | --- |
| I167E | 0.052 | 0.0578 | 0.0515 | 0.0465 | 0.0731 |  |  |  |  |  |  |  |  |  |  |  |  |  |  |  |
| I167G | 0.0693 | 0.0373 | 0.0665 |  | 0.0641 | 0.0437 | 0.054 | 0.0576 | 0.0606 | 0.0615 | 0.0529 | 0.0553 | 0.0464 | 0.0517 |  |  |  |  |  |  |
| H168T | 0.04 |  | 0.0611 |  |  |  | 0.0549 | 0.0624 |  | 0.0601 | 0.0529 | 0.0705 | 0.0461 |  | 0.0605 | 0.0593 |  |  |  |  |
| H168V | 0.0581 | 0.0545 | 0.0614 | 0.0692 | 0.0512 |  | 0.0586 |  | 0.057 | 0.058 | 0.0879 | 0.0546 | 0.0705 |  | 0.0751 |  | 0.0526 | 0.0631 | 0.0571 |  |
| N172C | 0.0701 |  | 0.0732 | 0.0704 | 0.0553 | 0.0549 |  |  |  | 0.063 | 0.0606 | 0.05 | 0.0593 | 0.0552 | 0.0708 | 0.0658 |  | 0.0771 |  | 0.0552 |
| T174A | 0.0772 |  | 0.0993 |  |  |  |  | 0.0838 | 0.0999 | 0.0445 |  |  |  |  | 0.11 | 0.0766 |  |  |  |  |
| T174R | 0.0572 | 0.0573 | 0.0887 | 0.059 | 0.0684 | 0.0661 | 0.0866 | 0.0529 | 0.0667 |  | 0.0626 | 0.0631 | 0.0501 |  | 0.0856 | 0.0588 |  |  |  |  |
| T174Y | 0.108 |  | 0.0976 |  | 0.0664 | 0.0792 |  | 0.0632 | 0.0741 |  | 0.0735 |  |  | 0.0722 | 0.121 | 0.1 |  | 0.111 |  |  |
| T176E | 0.0795 | 0.0638 | 0.0778 |  | 0.0582 | 0.0736 | 0.0677 |  | 0.0497 | 0.0419 |  | 0.0495 | 0.0687 |  | 0.0958 | 0.0701 |  | 0.0666 | 0.0578 |  |
| T176H | 0.0777 |  | 0.0748 | 0.0638 |  | 0.0823 |  | 0.0552 |  | 0.0612 | 0.0627 | 0.0549 |  | 0.0574 |  |  |  |  | 0.0562 |  |
| T176P | 0.0523 |  | 0.0626 | 0.0655 |  | 0.0459 | 0.0628 |  | 0.0527 | 0.044 | 0.0632 | 0.0558 |  |  | 0.0805 | 0.0576 | 0.0563 | 0.0625 |  |  |
| Y179M | 0.0469 | 0.0538 | 0.0647 |  | 0.0489 |  |  | 0.0672 | 0.0749 | 0.0566 |  | 0.0562 | 0.0596 |  |  |  | 0.0398 | 0.0795 |  |  |
| V183K | 0.0428 | 0.0606 | 0.0549 | 0.047 | 0.024 | 0.0594 |  | 0.0527 | 0.0552 | 0.0384 | 0.0596 | 0.057 | 0.0571 |  | 0.0685 | 0.0593 | 0.0446 | 0.0556 |  |  |
| P184A | 0.0754 |  | 0.0857 | 0.0573 | 0.0365 | 0.0578 | 0.0537 | 0.0592 | 0.0652 |  | 0.0736 | 0.0789 | 0.0559 | 0.0809 | 0.0824 | 0.0661 | 0.0697 | 0.103 |  | 0.0436 |
